Results taken from the supplement of paper PMC4604168 (melanoma cell lines).
The list shows a part of the results. Single values are uncertain, as repeats are few or missing.

Legend:
Assay in all cases: cell count relative to DMSO control; melanoma cells; higher = more viable cells
Conditions in all cases: library dose: standard library concentration; 72 h
[1] = test system: G361
[2] = test system: IPC-298
[3] = test system: IST-MEL1
[4] = test system: LB2518-MEL
[5] = test system: LOXIMVI
[6] = test system: MEL-HO
[7] = test system: MZ2-MEL
[8] = test system: MeWo
[9] = test system: RPMI7951
[10] = test system: RVH-421
[11] = test system: SkMel28
[12] = test system: SkMel2
[13] = test system: SkMel30
[14] = test system: SkMel5
[15] = test system: UACC257
[16] = test system: UACC62
[17] = test system: WM115
[18] = test system: WM1716
[19] = test system: WM1745
[20] = test system: WM3526
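Also: cells treated in 1,536-well plates, then fixed and DAPI-stained, with nuclei counted from automated high-throughput microscope images.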

Compound	cell count [1]	cell count [2]	cell count [3]	cell count [4]	cell count [5]	cell count [6]	cell count [7]	cell count [8]	cell count [9]	cell count [10]	cell count [11]	cell count [12]	cell count [13]	cell count [14]	cell count [15]	cell count [16]	cell count [17]	cell count [18]	cell count [19]	cell count [20]
O=C(Nc1cc(C(F)(F)F)cc(C(F)(F)F)c1)c1cc(Cl)ccc1O + CC1(C)CCC(c2ccc(Cl)cc2)=C(CN2CCN(c3ccc(C(=O)NS(=O)(=O)c4ccc(N[C@H](CCN5CCOCC5)CSc5ccccc5)c(S(=O)(=O)C(F)(F)F)c4)cc3)CC2)C1 [ABT263] (first compound 0.08 µM, partner dose 2 µM)	66.5%	90.4%	61%	88.8%	61.8%	55.8%	79.3%	86.9%	26.2%	191%	65.5%	83.3%	68.2%	98.8%	37.3%	75.1%	98.3%	63.7%	3.53%	78%
O=C(O)c1ccc2c(c1)nc(Nc1cccc(Cl)c1)c1ccncc12 + C=CCNC1=C2C[C@@H](C)C[C@H](OC)[C@H](O)[C@@H](C)/C=C(\C)[C@H](OC(N)=O)[C@@H](OC)/C=C\C=C(/C)C(=O)NC(=CC1=O)C2=O [Tanespimycin] (first compound 2 µM, partner dose 0.01 µM)	59.4%	81%	44%	73.6%	67.1%	61.6%	73.5%	62.2%	14.6%	79.9%	35.1%	77.2%	72.7%	42.9%	95%	36.1%	11%	103%	46.9%	50.7%
O=C(O)c1ccc2c(c1)nc(Nc1cccc(Cl)c1)c1ccncc12 + OCc1c[nH]c2ccccc12 [Indole-3-carbinol] (first compound 2 µM, partner dose 4 µM)	69.8%	71.1%	88.2%	93.8%	81.6%	66.4%	65.9%	88%	99.4%	262%	79.1%	90.5%	70.5%	94.5%	124%	86.1%	95.9%	117%	77.4%	78.2%
Cn1nnc2c(C(N)=O)ncn2c1=O [temozolomide] + CC(C)(C)c1cnc(CSc2cnc(NC(=O)C3CCNCC3)s2)o1 [SNS-032] (first compound 10 µM, partner dose 0.05 µM)	102%	103%	82.2%	85.5%	51.7%	109%	99.8%	100%	41.5%	83.7%	36.7%	92.5%	91.8%	75.5%	114%	64.7%	120%	62.5%	72.2%	91.4%
O=C(O)[C@@H]1[O][Sb](=[O])([O][Sb]2(=[O])[O][C@H]([C@H](O)CO)[C@H](O)[C@H](C(=O)O)[O]2)[O][C@H]([C@H](O)CO)[C@@H]1O (stereo not given in full) [stibogluconate] + CO[C@H]1C[C@@H]2CC[C@@H](C)[C@@](O)(O2)C(=O)C(=O)N2CCCC[C@H]2C(=O)O[C@H]([C@H](C)C[C@@H]2CC[C@@H](OCCO)[C@H](OC)C2)CC(=O)[C@H](C)/C=C(\C)[C@@H](O)[C@@H](OC)C(=O)[C@H](C)C[C@H](C)/C=C/C=C/C=C/1C [everolimus] (first compound 10 µM, partner dose 0.1 µM)	59.9%	72.6%	87.6%	62.3%	114%	66.1%	80.7%	74.6%	113%	148%	42.2%	65.3%	59.7%	65.8%	97.4%	74.7%	68.6%	89%	95.5%	66.4%
Cc1cc(N2CCOCC2)cc2[nH]c(-c3c(NC[C@@H](O)c4cccc(Cl)c4)cc[nH]c3=O)nc12 + COc1ccc2c(c1)CCC1C2CCC2(C)C(NCCCCCCN3C(=O)C=CC3=O)CCC12 [U73122] (first compound 1 µM, partner dose 2 µM)	77.6%	101%	84.7%	120%	96.7%	92.6%	113%	56.3%	41.8%	88.8%	71.6%	83.8%	60.7%	70.7%	83.6%	61.9%	79.7%	92.8%	63.2%	82.5%
O=C(O)[C@@H]1[O][Sb](=[O])([O][Sb]2(=[O])[O][C@H]([C@H](O)CO)[C@H](O)[C@H](C(=O)O)[O]2)[O][C@H]([C@H](O)CO)[C@@H]1O (stereo not given in full) [stibogluconate] + Cc1ccc(NC(=O)c2cccc(N(C)C)c2)cc1NC(=O)c1ccc(O)cc1 [ZM336372] (first compound 10 µM, partner dose 10 µM)	73.4%	98.2%	69.8%	100%	105%	86.6%	86.9%	77.5%	82.3%	102%	88.1%	88.2%	112%	100%	104%	97.6%	86.3%	103%	54.4%	94.4%
Cn1nnc2c(C(N)=O)ncn2c1=O [temozolomide] + NC(=O)Nc1cc(-c2cccc(F)c2)sc1C(=O)N[C@H]1CCCNC1 [AZD7762] (first compound 10 µM, partner dose 0.1 µM)	120%	87.5%	77.4%	81.6%	88.2%	94.3%	100%	106%	31%	136%	41.7%	113%	65.7%	88.3%	106%	72.5%	71.5%	54.6%	62.1%	63.3%
Cc1cc(N2CCOCC2)cc2[nH]c(-c3c(NC[C@@H](O)c4cccc(Cl)c4)cc[nH]c3=O)nc12 + Cc1cc([N+](=O)[O-])ccc1NS(=O)(=O)c1cc(Cl)ccc1Cl [FH535] (first compound 1 µM, partner dose 5 µM)	40.3%	49.5%	61%	101%	65.7%	43.4%	68.2%	57.2%	77.6%	71.5%	54.2%	73.4%	83.9%	46.2%	63.1%	79.5%	72.8%	83.7%	55.7%	66%
O=C(Nc1cc(C(F)(F)F)cc(C(F)(F)F)c1)c1cc(Cl)ccc1O + NC(=O)c1ccc(N(C(N)=O)c2c(F)cccc2F)nc1-c1ccc(F)cc1F [VX702] (first compound 0.08 µM, partner dose 2 µM)	87.5%	94.5%	86.1%	98.7%	127%	108%	96.4%	101%	124%	172%	88.1%	119%	106%	88.8%	107%	81.2%	103%	128%	119%	111%
O=C(O)[C@@H]1[O][Sb](=[O])([O][Sb]2(=[O])[O][C@H]([C@H](O)CO)[C@H](O)[C@H](C(=O)O)[O]2)[O][C@H]([C@H](O)CO)[C@@H]1O (stereo not given in full) [stibogluconate] + Cc1nc(Nc2ncc(C(=O)Nc3c(C)cccc3Cl)s2)cc(N2CCN(CCO)CC2)n1 [dasatanib] (first compound 10 µM, partner dose 0.02 µM)	67.9%	68.5%	62.6%	55.4%	8.51%	62%	39.2%	80.2%	46.3%	61.7%	55.8%	71.6%	86.8%	68.3%	47%	59.5%	55.7%	72.5%	30.2%	73.1%
O=C(O)[C@@H]1[O][Sb](=[O])([O][Sb]2(=[O])[O][C@H]([C@H](O)CO)[C@H](O)[C@H](C(=O)O)[O]2)[O][C@H]([C@H](O)CO)[C@@H]1O (stereo not given in full) [stibogluconate] + NC(=O)Nc1cc(-c2cccc(F)c2)sc1C(=O)N[C@H]1CCCNC1 [AZD7762] (first compound 10 µM, partner dose 0.1 µM)	86.6%	98.2%	92.9%	60.7%	78.9%	89.6%	99.2%	87.8%	21.7%	105%	52.8%	74.2%	81.1%	72%	117%	80.3%	67.5%	65.5%	59.5%	40.5%
O=C(O)[C@@H]1[O][Sb](=[O])([O][Sb]2(=[O])[O][C@H]([C@H](O)CO)[C@H](O)[C@H](C(=O)O)[O]2)[O][C@H]([C@H](O)CO)[C@@H]1O (stereo not given in full) [stibogluconate] + C=CCNC1=C2C[C@@H](C)C[C@H](OC)[C@H](O)[C@@H](C)/C=C(\C)[C@H](OC(N)=O)[C@@H](OC)/C=C\C=C(/C)C(=O)NC(=CC1=O)C2=O [Tanespimycin] (first compound 10 µM, partner dose 0.01 µM)	85.5%	86.1%	103%	91.7%	136%	113%	137%	77.2%	32.4%	92.2%	121%	103%	151%	60.9%	115%	53.8%	26.4%	88%	55.7%	73.6%
O=C(Nc1cc(C(F)(F)F)cc(C(F)(F)F)c1)c1cc(Cl)ccc1O + C#Cc1cccc(Nc2ncnc3cc(OCCOC)c(OCCOC)cc23)c1 [erlotinib] (first compound 0.08 µM, partner dose 4 µM)	71.5%	65.9%	86.7%	66.9%	92.4%	78.1%	73.8%	66.4%	92.1%	17.3%	57.1%	98.6%	81.3%	79.4%	88.9%	50.2%	66.6%	107%	58.6%	75.9%
O=C(Nc1cc(C(F)(F)F)cc(C(F)(F)F)c1)c1cc(Cl)ccc1O + Cc1cc(N2CCOCC2)cc2[nH]c(-c3c(NC[C@@H](O)c4cccc(Cl)c4)cc[nH]c3=O)nc12 [BMS536924] (first compound 0.08 µM, partner dose 1 µM)	67.6%	89.7%	78.9%	99.4%	75.1%	82%	105%	63.3%	69.7%	94.2%	49.8%	87.6%	88.1%	56.5%	84.2%	79.5%	79.1%	98.1%	51.5%	71.5%
O=C(O)c1ccc2c(c1)nc(Nc1cccc(Cl)c1)c1ccncc12 + CN(C)S(=O)(=O)c1ccc2c(c1)/C(=C/c1cc3c([nH]1)CCCC3)C(=O)N2 [SU6656] (first compound 2 µM, partner dose 2 µM)	41.7%	54.7%	61.7%	78.4%	34.3%	40.7%	54.6%	68.4%	30.6%	47.7%	37.2%	76.3%	44.7%	67.1%	53%	72.5%	44.8%	59.5%	45.1%	50.1%
O=C(Nc1ccccc1)c1cc([N+](=O)[O-])ccc1Cl + O=C(O)C(=O)Nc1sc2c(c1C(=O)O)CCNC2 [TCS401] (first compound 10 µM, partner dose 8.33333 µM)	98.1%	97.1%	109%	86.6%	79.6%	89.5%	87.2%	104%	63.9%	70.1%	49.5%	102%	95%	85.7%	87.9%	121%	66.7%	93.5%	73.2%	76.9%
